# Test results from publication PMC4336329 (PLoS ONE, 2015).
# Among all 310,000 compounds or so, about 14,000 (4.5%) showed an effect of 50% or more. The effect is printed as a negative number. The list shows a part of the results.
# Molecular target: human ether-à-go-go-related gene (hERG) potassium channel (human, UniProt Q12809)
# Test: primary screen, population patch clamp on CHO cells stably expressing hERG
# 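Further: peak tail current of the secondary pulse compared with the same well before compound.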
# Sequence of human ether-à-go-go-related gene (hERG) potassium channel (Q12809 whole entry, looked up): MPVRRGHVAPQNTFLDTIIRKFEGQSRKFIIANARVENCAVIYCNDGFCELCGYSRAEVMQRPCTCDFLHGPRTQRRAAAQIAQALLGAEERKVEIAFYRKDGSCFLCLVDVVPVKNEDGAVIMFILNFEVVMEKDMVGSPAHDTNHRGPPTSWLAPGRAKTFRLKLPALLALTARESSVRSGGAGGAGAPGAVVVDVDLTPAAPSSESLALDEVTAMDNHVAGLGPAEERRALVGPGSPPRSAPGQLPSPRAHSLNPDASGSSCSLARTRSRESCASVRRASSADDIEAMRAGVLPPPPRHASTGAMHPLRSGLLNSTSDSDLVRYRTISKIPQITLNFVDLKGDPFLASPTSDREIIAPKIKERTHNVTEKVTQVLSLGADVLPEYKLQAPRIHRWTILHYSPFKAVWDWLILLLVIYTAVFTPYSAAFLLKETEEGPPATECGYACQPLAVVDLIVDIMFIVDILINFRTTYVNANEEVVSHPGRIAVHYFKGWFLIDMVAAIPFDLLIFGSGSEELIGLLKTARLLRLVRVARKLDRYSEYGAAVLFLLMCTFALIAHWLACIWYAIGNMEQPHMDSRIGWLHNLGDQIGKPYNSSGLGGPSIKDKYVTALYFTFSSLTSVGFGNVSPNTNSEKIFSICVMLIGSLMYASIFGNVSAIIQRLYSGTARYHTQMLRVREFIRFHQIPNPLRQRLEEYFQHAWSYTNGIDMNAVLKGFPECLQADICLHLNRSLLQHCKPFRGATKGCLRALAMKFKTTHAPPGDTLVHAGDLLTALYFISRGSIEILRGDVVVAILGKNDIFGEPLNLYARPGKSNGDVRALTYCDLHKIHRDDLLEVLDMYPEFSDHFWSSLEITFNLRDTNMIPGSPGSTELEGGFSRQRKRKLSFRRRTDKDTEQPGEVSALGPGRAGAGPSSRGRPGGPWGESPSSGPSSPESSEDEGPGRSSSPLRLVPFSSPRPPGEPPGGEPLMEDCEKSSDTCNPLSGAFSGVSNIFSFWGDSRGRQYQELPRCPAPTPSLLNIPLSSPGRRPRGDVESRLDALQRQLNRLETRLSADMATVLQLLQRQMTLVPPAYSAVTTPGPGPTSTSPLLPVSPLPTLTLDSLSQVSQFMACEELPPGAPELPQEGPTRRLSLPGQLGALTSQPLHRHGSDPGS
row,SMILES,"hERG current change (%, negative = inhibition) at 10uM"
1,CCOc1ccc(/C(O)=C2/C(=O)C(=O)N(CC3CCCO3)C2c2ccco2)cc1 (stereo not drawn),14.2%
2,Cc1cc(C)c(S(=O)(=O)NCc2cccnc2)c(C)c1,-2.97%
3,O=C(Cc1ccc(F)cc1)Nc1ccc(S(=O)(=O)N2CCCC2)cc1,-2.15%
4,O=C1COc2ccc(C(=O)COC(=O)CNC(=O)c3ccco3)cc2N1,-12.6%
5,COc1ccc(CCN(C)C(=O)CN2C(=O)NC3(CCCCC3C)C2=O)cc1OC (stereo not drawn),3.33%
6,CCOc1ccc(NC(=O)c2c(C)nn(Cc3ccccc3)c2Cl)cc1,12.3%
7,CC(C)(C)CC(=O)NCc1cccs1,-4.18%
8,CCCCCN1C=CC=C/C1=C\C=C(C#N)C#N,-70.9%
9,COc1ccc(S(=O)(=O)N2CCOc3ccccc32)cc1,-1.55%
10,COC(=O)CSc1nc(C)cc(C)c1C#N,19.6%
11,COc1cc(Cl)cc(C2NC(=O)NC(C)=C2C(=O)NCc2ccccc2)c1O (stereo not drawn),-1.46%
12,Cn1c(=O)oc2cc(S(=O)(=O)N3CCN(c4cccc(Cl)c4)CC3)ccc21,2.39%
13,COc1ccccc1OCC(=O)NCc1cccs1,18.3%
14,CCOC(=O)c1ccc(NC(=S)NCc2ccc(F)cc2)cc1,1.35%
15,Cc1c(NS(=O)(=O)c2cccc(C(=O)NCc3ccncc3)c2)c(=O)n(-c2ccccc2)n1C,6.38%
16,CCSc1nnc(NC(=O)CCNS(=O)(=O)c2ccccc2F)s1,12.1%
17,O=C(Nc1nc(-c2ccc3c(c2)OCO3)cs1)C1COc2ccccc2O1 (stereo not drawn),13.1%
18,CCc1cc(C(=O)Cc2ccc(F)cc2)c(O)cc1O,-12.7%
19,COc1cccc(Cn2cc(C(=O)NCCN(C)C)nn2)c1,0.176%

row,SMILES,"hERG current change (%, negative = inhibition) at 10uM"
1,C/C(=N\NC(=S)Nc1cccc(C)c1)c1ccco1,-6.35%
2,O=C(CSc1nncc(=O)[nH]1)NCc1ccccc1,12.9%
3,CSCCC(NC(=O)COc1ccccc1)C(=O)N(C)CC(=O)Nc1ccc(C)cc1 (stereo not drawn),-20.6%
4,CCOC(=O)CC(NS(=O)(=O)c1ccc(OC)c(OC)c1)c1cccc([N+](=O)[O-])c1 (stereo not drawn),-12.4%
5,C=CCn1c(SCC(=O)N2CCOCC2)nc2scc(-c3ccco3)c2c1=O,-48.8%
6,CC(C)(C)C(=O)OCc1nc(-c2ccc(Cl)cc2)cs1,7.41%
7,CC(C)CCNC(=O)c1ccc(OC2CCN(S(=O)(=O)N(C)C)CC2)cc1,20.4%
8,COc1cccc(-c2nc(CS(=O)(=O)CC(=O)NCCc3cc(OC)ccc3OC)c(C)o2)c1,-7.78%
9,O=C(CN(C(=O)c1csnn1)c1ccc(F)cc1)NCc1ccc(F)cc1,10.1%
10,COc1ccc(COC(=O)C2=C(C)NC(=O)NC2c2ccccc2F)cc1 (stereo not drawn),21.7%
11,COc1ccc(C(O)c2nccn2C)cc1 (stereo not drawn),-4.68%
12,O=C(Cc1ccccc1)Nc1cc([N+](=O)[O-])ccc1N1CCOCC1,-36.2%
13,Cc1nc2nc(-c3ccccc3)cn2nc1C,-4.11%
14,CC1(C)[C@@H](O)CC[C@]2(C)C3C(O)C=C4[C@H]5C[C@@](C)(C(=O)O)CC[C@]5(C)CC[C@]4(C)[C@]3(C)CC[C@@H]12 (stereo partly drawn),10.7%
15,O=C(O)C(=O)O.O=S(=O)(c1ccc(Cl)c(C(F)(F)F)c1)N1CCN(CC(O)COCC2CCCO2)CC1 (stereo not drawn),-12.4%
16,COc1ccc(CCN(C)C(=O)/C=C/c2c(Cl)nc3ccccn23)cc1OC,2.79%
17,O=C([O-])CSc1nc2c(c(C(F)(F)F)n1)CCCC2.[Na+],12.2%
18,COc1ccc(NC(=O)c2sc3nc(N4CCOCC4)c4c(c3c2N)CC(C(C)C)OC4)c(OC)c1 (stereo not drawn),16.5%
19,O=C(Oc1ccc(/C=N/O)cc1)c1ccccc1Cl,9.35%

row,SMILES,"hERG current change (%, negative = inhibition) at 10uM"
1,O=c1[nH][nH]c(-c2ccccc2O)c1C(C[N+](=O)[O-])c1ccc(Cl)cc1Cl (stereo not drawn),10.6%
2,COC(=O)C1=C(C)N(C)C(=S)NC1c1ccc(Cl)cc1 (stereo not drawn),-3.81%
3,O=C(NCCN1CCOCC1)c1c(O)nc2ccccn2c1=O,10.9%
4,C=CCOc1c(Br)cc(CNn2cn[nH]c2=S)cc1OC,-22.9%
5,O=C(c1ccccc1)N1CCN(CCc2ccccc2)CC1,-43.6%
6,O=C(Cc1ccc([N+](=O)[O-])cc1)N1N=C(c2ccncc2)CC1(O)C(F)(F)F (stereo not drawn),14.1%
7,CN1C(=O)C(Cc2cccc3ccccc23)C(=O)N(C)C1=O,4.79%
8,COc1cc(C[C@@H](C)N)c(OC)cc1I.Cl,-11.8%
9,S=c1nc(-c2ccc(Br)cc2)[nH]c2ccccc12,16.1%
10,CCCN(CCC)CCNS(=O)(=O)c1ccc2c(c1)oc(=O)n2C,14.8%
11,Cc1nnc(NC(=O)CSc2nnc(CNC(=O)c3ccccc3)n2-c2ccccc2)s1,6.12%
12,CC1CCC(NC(=O)COC(=O)CCC(=O)c2ccc(Cl)s2)CC1 (stereo not drawn),17.9%
13,CCn1c(=O)c(=O)[nH]c2cc(C(=O)NC3CCCC3)ccc21,19%
14,O=S(=O)(Nc1ccc2oc(-c3ccccc3)nc2c1)c1ccccc1,-12.3%
15,COc1ccc(-c2c(C)nn3c(N4CCC(C(=O)N5CCCCC5)CC4)cc(C)nc23)cc1OC,-8.83%
16,CC1(C)CC(N2CCCC2)=CC(=[N+]2CCCCCC2)C1.[I-],-8.68%
17,O=C(Nc1c(F)cc(F)cc1Br)c1cc(-c2ccco2)on1,-1.65%
18,O=C(NCCCN1CCOCC1)c1ccccc1.O=C(O)C(=O)O,21.1%
19,O=C(CNc1cccc(S(=O)(=O)N2CCOCC2)c1)Nc1cccc(Br)c1,-21.6%
